Consider 20 molecules from publication PMC9911399, “Two distinct binding modes provide the RNA-binding protein RbFox with extraordinary sequence specificity”.

First the molecules themselves.
B1: UUCAAAG (DNA:RNA)
RNA: GGGAGACCGGAAUUCAGAUUGUCCUUCAAAGUUAAAUCCCGUCGUAGCCACCA
DNA 1: CAATCTGAATTCCGGTCTCCC
DNA 2: TGGTGGCTACGACGGGATT
B2: UCGUCGG (DNA:RNA)
RNA: B1 RNA with U26C, C27G, A28U, A29C, A30G
DNA 1: CAATCTGAATTCCGGTCTCCC
DNA 2: TGGTGGCTACGACGGGATT
B3: AACCGGC (DNA:RNA)
RNA: B1 RNA with U25A, U26A, A28C, A29G, A30G, G31C
DNA 1: CAATCTGAATTCCGGTCTCCC
DNA 2: TGGTGGCTACGACGGGATT
B4: UGCAACG (DNA:RNA)
RNA: B1 RNA with U26G, A30C
DNA 1: CAATCTGAATTCCGGTCTCCC
DNA 2: TGGTGGCTACGACGGGATT
B5: GUGUUGG (DNA:RNA)
RNA: B1 RNA with U25G, C27G, A28U, A29U, A30G
DNA 1: CAATCTGAATTCCGGTCTCCC
DNA 2: TGGTGGCTACGACGGGATT
B6: CUCGUAA (DNA:RNA)
RNA: B1 RNA with U25C, A28G, A29U, G31A
DNA 1: CAATCTGAATTCCGGTCTCCC
DNA 2: TGGTGGCTACGACGGGATT
B7: CACUCAU (DNA:RNA)
RNA: B1 RNA with U25C, U26A, A28U, A29C, G31U
DNA 1: CAATCTGAATTCCGGTCTCCC
DNA 2: TGGTGGCTACGACGGGATT
B8: UGUAUAC (DNA:RNA)
RNA: B1 RNA with U26G, C27U, A29U, G31C
DNA 1: CAATCTGAATTCCGGTCTCCC
DNA 2: TGGTGGCTACGACGGGATT
B9: UUAACAG (DNA:RNA)
RNA: B1 RNA with C27A, A29C
DNA 1: CAATCTGAATTCCGGTCTCCC
DNA 2: TGGTGGCTACGACGGGATT
B10: ACAGGAC (DNA:RNA)
RNA: B1 RNA with U25A, U26C, C27A, A28G, A29G, G31C
DNA 1: CAATCTGAATTCCGGTCTCCC
DNA 2: TGGTGGCTACGACGGGATT
B11: CUCCCGA (DNA:RNA)
RNA: B1 RNA with U25C, A28C, A29C, A30G, G31A
DNA 1: CAATCTGAATTCCGGTCTCCC
DNA 2: TGGTGGCTACGACGGGATT
B12: AUUCUUG (DNA:RNA)
RNA: B1 RNA with U25A, C27U, A28C, A29U, A30U
DNA 1: CAATCTGAATTCCGGTCTCCC
DNA 2: TGGTGGCTACGACGGGATT
B13: GUUAGAU (DNA:RNA)
RNA: B1 RNA with U25G, C27U, A29G, G31U
DNA 1: CAATCTGAATTCCGGTCTCCC
DNA 2: TGGTGGCTACGACGGGATT
B14: CAACAUU (DNA:RNA)
RNA: B1 RNA with U25C, U26A, C27A, A28C, A30U, G31U
DNA 1: CAATCTGAATTCCGGTCTCCC
DNA 2: TGGTGGCTACGACGGGATT
B15: UAUCGAC (DNA:RNA)
RNA: B1 RNA with U26A, C27U, A28C, A29G, G31C
DNA 1: CAATCTGAATTCCGGTCTCCC
DNA 2: TGGTGGCTACGACGGGATT
B16: AUGGGGA (DNA:RNA)
RNA: B1 RNA with U25A, C27G, A28G, A29G, A30G, G31A
DNA 1: CAATCTGAATTCCGGTCTCCC
DNA 2: TGGTGGCTACGACGGGATT
B17: ACAAUCC (DNA:RNA)
RNA: B1 RNA with U25A, U26C, C27A, A29U, A30C, G31C
DNA 1: CAATCTGAATTCCGGTCTCCC
DNA 2: TGGTGGCTACGACGGGATT
B18: GGAAUGG (DNA:RNA)
RNA: B1 RNA with U25G, U26G, C27A, A29U, A30G
DNA 1: CAATCTGAATTCCGGTCTCCC
DNA 2: TGGTGGCTACGACGGGATT
B19: AUUCCCA (DNA:RNA)
RNA: B1 RNA with U25A, C27U, A28C, A29C, A30C, G31A
DNA 1: CAATCTGAATTCCGGTCTCCC
DNA 2: TGGTGGCTACGACGGGATT
B20: GAUAGUG (DNA:RNA)
RNA: B1 RNA with U25G, U26A, C27U, A29G, A30U
DNA 1: CAATCTGAATTCCGGTCTCCC
DNA 2: TGGTGGCTACGACGGGATT

Where a chain is given by its changes, count along the chain named. The list shows a part of the results.

The target of this assay is T1, RBFOX1 RRM RbFoxmut (Fox-RRM*) (Homo sapiens, UniProt Q9NWB1 109-208, R118D;E147R;N151S;E152T).
T1 sequence: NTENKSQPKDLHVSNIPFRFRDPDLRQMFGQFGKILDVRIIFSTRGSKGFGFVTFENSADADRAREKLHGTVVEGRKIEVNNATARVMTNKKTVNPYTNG
Kind of assay: EMSA; HiTS-Eq, 1 nM pool, 10 min; buffer printed only for the single-RNA assays: 10 mM Tris pH 7.5, 150 mM NaCl, 3.4 mM EDTA, 0.001% NP-40, 30 C. The settings on record: tags: His6 N-terminal (pET28a); label: 5' 32P. The procedure, abridged: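 These values rest on relative association constants, computed from read-count changes of each RNA species versus the control reaction and normalised to the cognate motif. Reads came from free RNA recovered by 8% native PAGE after purified RbFox RRM (wild type or mutant) at increasing concentrations was equilibrated for 10 min in 50 µL with 1 nM of a 5′-radiolabelled pool with 7 randomized nucleotides and DNA-annealed flanks.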
On the technique in general: A gel shift assay detects complexes by their altered migration in electrophoresis.
On to B1, for which the binding signal was 0.104 KA relative to UGCAUGU.
Take B2: the binding signal is 0.129 KA relative to UGCAUGU.
Regarding B3, the binding signal is 0.0987 KA relative to UGCAUGU.
To B4 belongs 0.107 KA relative to UGCAUGU; to B5, 0.108 KA relative to UGCAUGU.
Next, B6: 0.136 KA relative to UGCAUGU.
For B7, the binding signal is 0.112 KA relative to UGCAUGU.
With B8, the binding signal is 0.114 KA relative to UGCAUGU.
To B9 belongs 0.0772 KA relative to UGCAUGU; to B10, 0.0906 KA relative to UGCAUGU.
For B11, the binding signal was 0.036 KA relative to UGCAUGU.
To B12 belongs 0.125 KA relative to UGCAUGU; to B13, 0.131 KA relative to UGCAUGU.
To B14 belongs 0.0738 KA relative to UGCAUGU; to B15, 0.0663 KA relative to UGCAUGU.
To B16 belongs 0.12 KA relative to UGCAUGU.
Turning to B17, the binding signal is 0.0642 KA relative to UGCAUGU.
To B18 belongs 0.724 KA relative to UGCAUGU.
Regarding B19, the binding signal is 0.0559 KA relative to UGCAUGU.
To B20 belongs 0.126 KA relative to UGCAUGU.
